Assay results from ChEMBL document CHEMBL4888484, “Replenishing the malaria drug discovery pipeline: Screening and hit evaluation of the MMV Hit Generation Library 1 (HGL1) against asexual blood stage Plasmodium falciparum ,using a nano luciferase reporter read-out” (2022).
In all, about 150,000 compounds went through this assay and about 540 (0.36%) showed an effect of 50% or more. The list shows a part of the results.

The compounds below were run on Plasmodium falciparum (assay: Primary screen in NF54 nanoGlo assay, in single point, at 2uM, 72h; a lower Z score goes with more inhibition). Conditions: timepoint 72 hour.
Assay type: functional, Erythrocyte

| Structure (SMILES) | % Inhibition [%] | Z score |
| --- | --- | --- |
| O=C1C[C@H](N2CCN(/C=C/c3ccccc3)CC2)C(=O)N1c1cc(Cl)cc(Cl)c1 | -5 | 0.66 |
| CCC(C)(C)NS(=O)(=O)c1c(F)cc(F)cc1Br | -9 | 0.76 |
| CC(C)(CNC(=O)N1CCC(C(N)=O)CC1)c1ccc2c(c1)OCO2 | -5 | 0.77 |
| CN(CC#CCNC(=O)[C@H]1CCCN(C)C1)Cc1ccccc1 | -5 | 0.88 |
| CS(=O)(=O)c1ccc(CN2CCC[C@H]2c2nc(-c3ccnc(N4CCC(C(N)=O)CC4)c3)no2)cc1 | 17 | -1.98 |
| C#CCN(CCc1ccc2c(c1)CCO2)[C@H]1CCS(=O)(=O)C1 | 0 | 0.01 |
| CN(C)CCN1CCCN(C(=O)c2cnc3ccc(F)cc3c2)CC1 | -5 | 0.62 |
| O=C(NC1CC1)c1ccc2[nH]c3c(c2c1)CCCC3 | 12 | -1.35 |
| NC(C(=O)O)C(O)c1ccc(OCc2ccccc2)c(OCc2ccccc2)c1 (stereo not given) | 0 | -0.06 |
| CCCNc1ccccc1NC(=O)CNC(C)=O | -16 | 1.67 |
| CCc1nnsc1C(=O)Nc1ccc2oc(C3CC3)nc2c1 | -7 | 0.86 |
| Cc1nn(Cc2csc(C(C)C)n2)c(C)c1[C@@H]1CCCC(=O)N1 | -5 | 0.5 |
| Cc1cc(C)nc(CN(C)c2ncccc2C(N)=O)c1 | 4 | -0.58 |
| C[C@@H](C(=O)N(C)Cc1ccc2c(c1)CN(C)C2)N1CCN(C)CC1 | -5 | 0.94 |
| Cc1cc(-c2noc(C[C@H]3CCC(F)(F)C3)n2)cc2nc[nH]c12 | -17 | 1.41 |
| CCCCC(CC)C(=O)NC(C)CC(=O)c1ccc(F)cc1 (stereo not given) | 3 | -0.36 |
| Cc1cnc(C)c(-c2cc(O)c3c(c2)CN(CCCn2cnnn2)CCO3)n1 | 3 | -0.61 |
| COc1cc(Cl)c(C)cc1NC(=O)[C@@H](C#N)C(=O)c1cc(C)no1 | -29 | 3.35 |
| Brc1cccc2c(-c3cnn(-c4ccccc4)c3)n[nH]c12 | -2 | 0.21 |
| COCCCNC(=O)CCN(CC(C)C)C(=O)c1cc(C)oc1C | -11 | 1.46 |
| C[C@@H](NC(=O)N1CCC(C(=O)O)CC1)c1ccc(Cl)cc1Cl | -10 | 1.23 |
| O=C(C[C@H](n1cccn1)C(F)(F)F)N1CCN(C2CC2)c2ccc(Cl)cc21 | -2 | 0.26 |
| O=C(NC1CC1)c1ccc(OCC(=O)N(C2CCCC2)C2CC2)cc1 | -13 | 1.89 |
| NC(=O)c1ccc(-c2cnc3ccccc3c2)nc1 | -17 | 3.25 |
| Cc1cnc(NC(=O)[C@H]2CCCC(C)(C)C2)[nH]1 | -2 | 0.29 |
| CC1CN(c2cncc(Br)c2)CC(C)O1 (stereo not given) | 0 | 0 |
| C[C@@H](C(=O)Nc1ncccc1OCc1cccnc1)c1ccsc1 | -12 | 1.81 |
| CC(C)(C)c1nc2ccc(S(=O)(=O)N3CCO[C@H](C(F)F)C3)cc2s1 | -11 | 2.14 |

| Structure (SMILES) | % Inhibition [%] | Z score |
| --- | --- | --- |
| Cc1nn(C)cc1C(=O)N[C@@](C)(CO)C1CCCCC1 | -8 | 0.77 |
| CCCn1cc(CN/C(=N\c2cc(C)cc(C)c2)NC(=O)c2cccc(N(C)C)c2)c(C)n1 | 1 | -0.12 |
| OCc1nc2cc(-c3cccnc3)ccc2[nH]1 | 2 | -0.31 |
| O=C(NCCCNC(=O)N1CC2CCCC2C1)C1CCC1 (stereo not given) | -4 | 0.66 |
| CCn1ccc(C(=O)N2CCC(Cc3nnc(C)[nH]3)CC2)n1 | -18 | 2.58 |
| Cc1cnn(CC(C)NC(C)c2ccc(C(F)F)nc2)c1 (stereo not given) | -8 | 0.85 |
| Cc1ccc(C2OCC3(CO)COC(c4ccc(C)cc4)N23)cc1 (stereo not given) | -13 | 1.37 |
| CC(C)N1C[C@@]2(CCCN(c3cc(N)nc(N)n3)C2)CCC1=O | 0 | 0 |
| CC(C)(C)OC(=O)NCc1nnc(C2(c3cccc(F)c3)CCC2)o1 | -4 | 0.31 |
| O=C(CCc1ccccc1F)N1CC(N2C(=O)CNC2=O)C1 | -5 | 0.98 |
| CC(C)COC[C@H](C)NC(=O)C1(C)CCCC1 | -3 | 0.39 |
| Cc1cnc(NCCN2CCC(CO)CC2)nc1 | -5 | 1.02 |
| CC(C)c1cc(C(=O)NC(C)(CO)CO)no1 | -7 | 1.07 |
| Cc1ccc(OS(=O)(=O)c2ccccc2)c(-n2nc3ccccc3n2)c1 | -9 | 1.22 |
| CC(C)N(C)S(=O)(=O)NC[C@@H](c1ccco1)N1CCCC1 | 0 | 0.02 |
| C[C@@H](CN(C(=O)c1ccoc1)c1ccccc1)NC(=O)c1ccoc1 | -9 | 1.35 |
| O=C(c1cc(NS(=O)(=O)c2ccccc2)ccn1)N1CCCCC1 | -6 | 0.88 |
| Cc1nc2ccc(C(=O)NC(C)(C)CN3CCOCC3)cc2n1C | -6 | 0.91 |
| Cc1cc(NC(=O)c2cc3nc(N4CCCCC4)sc3s2)ccc1F | 1 | -0.2 |
| C=CCNC(=O)C1(NCc2c(C)noc2C)CCCCC1 | -8 | 1.04 |
| CC[C@H](NS(=O)(=O)N1CCCCCC1)c1nccs1 | -14 | 1.84 |
| CC(C)(C)C(=O)N1CCC[C@H](c2nc(-c3cncc(O)c3)no2)C1 | -17 | 1.87 |
| NC(=O)N[C@@H](CC(=O)N1CCCCCC1)c1ccccc1 | -7 | 1.39 |
| CCN(C)C(=O)c1ccc(COc2ccc3c(c2)[C@H](c2ccc(F)cc2)N(C(=O)C2CCCC2)CC3)o1 | -17 | 2.85 |
| CCn1ncc(Br)c1C(=O)N[C@H]1CCC(=O)N(C)C1 | -9 | 1.7 |
| CCCn1cnc2cc(CNC(=O)c3cnccn3)ccc21 | -16 | 2.61 |
| COc1ccc([C@H](CNC(=O)c2oc3cc(Br)ccc3c2C)N2CCCCC2)cc1 | 5 | -0.54 |
